Assay results taken from US11789019B2 (priority 2014, dated 2023).

System: 1807 T cells
Experiment: Stimulation of 1807 T cells in vitro (BMDC co-culture; IFN-γ ELISA, CD44/CD62L)
Details: for activation of 1807 T cells (reduced CD62L, increased CD44): three days, flow cytometry

Substance | IFN-γ production by 1807 T cells (supernatants after 72 hours, ELISA) | activation of 1807 T cells (reduced CD62L, increased CD44)
LVVKNPAAHHAIS (Blastomyces dermatitidis of strains 26199, 18808, Er-3, 14081; Histoplasma capsulatum of strains G186AR, Nam1, H88, H143; Aspergillus sp.1 of strain group.1; Arthroderma; listed as Ajellomyces capsulatus, listed as Ajellomyces dermatitidis, listed as Arthroderma benhamiae) [Peptide #1] | concentration-dependent manner | activated
ovalbumin (OT-II) peptide: irrelevant control peptide (ISQAVHAAHAEINEAGR) [reference compound] | – | did not activate
